Results taken from patent US20110091372A1.

Key:
[1] = molecular target: epidermal growth factor receptor (EGFR) (human) (UniProt P00533); assay: flow cytometry on cells carrying the target, DVD-Ig at 2 ug/mL, PE goat anti-human IgG Fc detection
[2] = molecular target: epidermal growth factor receptor (EGFR) (human) (UniProt P00533); assay: flow cytometry on cells carrying the target; cell-bound DVD-Ig detected through fluorescent methotrexate held by its C-terminal MTX domain, so the signal needs both EGFR and MTX binding

FACS Geometric Mean N-terminal [1]: 739
FACS Geometric Mean (methotrexate localization) [2]: 12.2
B1: DVD1211 (bispecific antibody, human IgG1, kappa)
heavy: QVQLQESGPGLVKPSQTLSLTCTVSGYSISSDFAWNWIRQPPGKGLEWMGYISYSGNTRYQPSLKSRITISRDTSKNQFFLKLNSVTAADTATYYCVTAGRGFPYWGQGTLVTVSSASTKGPDVQLQESGPGLVKPSQSLSLTCTVTGFSITSPYAWNWIRQFPGNTLEWMGYISYRGSTTHHPSLKSRISITRDTSKNQFFLQLNSVTTEDTATYFCSSYGNYGAYSGQGTLVTVSA[human IgG1 constant region not shown]
light: DIQMTQSPSSMSVSVGDRVTITCHSSQDINSNIGWLQQKPGKSFKGLIYHGTNLDDGVPSRFSGSGSGTDYTLTISSLQPEDFATYYCVQYAQFPWTFGGGTKLEIKRTVAAPDVLLTQIPLSLPVSLGDQASISCRSSQSIVHSNGNTYLEWYLQKPGQSPKLLIYKVSTRFSGVPDRFSGSGSGTDFTLKISRVEAEDLGVYYCFQGSHVPLTFGAGTQLELKRTVAAPSVFIFPPSDEQLKSGTASVVCLLNNFYPREAKVQWKVDNALQSGNSQESVTEQDSKDSTYSLSSTLTLSKADYEKHKVYACEVTHQGLSSPVTKSFNRGEC
